# In all, about 33,000 sequences were measured (“E-score (-0.5 to 0.5)”: median about -0.012, highest 2% from about 0.27 on). This is one part of the list.
# Target: T1, Vhr1 (UniProt P40522)
# T1 sequence: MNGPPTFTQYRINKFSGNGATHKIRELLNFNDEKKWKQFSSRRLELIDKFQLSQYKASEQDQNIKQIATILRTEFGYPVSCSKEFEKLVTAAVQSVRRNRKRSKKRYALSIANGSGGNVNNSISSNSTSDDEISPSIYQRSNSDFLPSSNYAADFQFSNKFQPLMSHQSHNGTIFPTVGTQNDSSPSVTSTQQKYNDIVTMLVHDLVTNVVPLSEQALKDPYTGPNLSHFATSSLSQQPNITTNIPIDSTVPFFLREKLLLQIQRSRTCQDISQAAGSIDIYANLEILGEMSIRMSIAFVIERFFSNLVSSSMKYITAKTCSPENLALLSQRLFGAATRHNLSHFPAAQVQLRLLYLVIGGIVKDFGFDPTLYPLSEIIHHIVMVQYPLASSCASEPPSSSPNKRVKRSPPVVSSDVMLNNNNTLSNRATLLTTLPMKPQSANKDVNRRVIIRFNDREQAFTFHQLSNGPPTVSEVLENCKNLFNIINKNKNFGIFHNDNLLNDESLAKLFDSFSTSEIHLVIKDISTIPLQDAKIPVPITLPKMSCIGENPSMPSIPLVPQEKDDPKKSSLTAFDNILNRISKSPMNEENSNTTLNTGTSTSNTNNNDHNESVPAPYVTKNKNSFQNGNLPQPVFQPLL
# Test: PBM E-score (8-mer binding enrichment) (E-score (-0.5 to 0.5)); higher = stronger / more preferred TF binding; most listed sequences are background and not binding sites
# Details: protein concentration: 200 nM; construct: GST-full length
# Procedure: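 Universal 'all 10-mer' protein binding microarrays (Agilent AMADID 015681) probed with GST-tagged S. cerevisiae TFs (full-length or DBD) made by in vitro transcription/translation (PURExpress), about 100-200 nM. Bound TF was detected with fluorescent anti-GST. Each ungapped 8-mer (which stands for itself and its reverse complement) is scored by the PBM enrichment score (E-score), a modified Wilcoxon-Mann-Whitney statistic from -0.5 to +0.5, computed with the Universal PBM Analysis Suite. Scale: above 0.35 generally sequence-specific binding.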
row,Sequence,PBM E-score
1,CCGTACCC,0.178
2,CGCCGCCA,0.221
3,AAAACCTA,-0.14
4,GTTTAATA,-0.0225
5,ACTGACTA,0.295
6,AAGCCGAA,0.0141
7,ACCTCTAT,-0.0423
8,AATCCAAG,0.086
9,TCCGGACA,-0.0474
10,TACCTATA,0.0684
11,AAGTAAAA,-0.118
12,GCCGTAGC,-0.163
13,CGTCAGAG,-0.103
14,GTGTTACA,0.102
15,GACGACAA,0.118
16,AAACGCTA,-0.279
17,AGGCGATA,-0.203
18,ACTGTGCT,0.0886
19,ACCCGAGA,-0.0197
20,AGACCCGG,0.201
21,CGGTGAGA,0.146
22,CAATACAC,-0.0925

row,Sequence,PBM E-score
1,CACTGGCG,0.0434
2,GGGCCTAC,-0.273
3,ATGTCCCG,0.0384
4,GCACCACC,0.0424
5,CCTACAAA,-0.0055
6,CGGAGACC,0.155
7,CTGACAGA,-0.145
8,TATCAATA,0.0758
9,AACCACAC,0.153
10,ATTGGAAA,-0.327
11,AGTAAAAT,-0.0518
12,GCCTAACA,0.026
13,CAATGCAA,-0.09
14,GTACCTTA,-0.0925
15,AGCCGCCA,0.00766
16,TCACGGAA,0.025
17,AAGCATCC,-0.214
18,CGGGCTCA,0.07
19,CTATTAAG,-0.204
20,CAACGCGC,0.0973
21,AGCAACAA,0.101
22,ACGGTGAT,0.0855

row,Sequence,PBM E-score
1,ATATTGCG,0.0989
2,ACTCATTA,0.175
3,ACAGAGCA,0.118
4,GTCCTCGA,-0.042
5,AATATCTC,0.0209
6,CCACTAAA,-0.081
7,ACAACGCA,0.0784
8,AGTTGGAG,-0.0212
9,CTGGTCTC,-0.164
10,GAACTGAC,-0.0354
11,GCAACCAC,0.198
12,ACCCATTG,0.0779
13,ACGTTGCC,-0.2
14,ATCCGTCG,-0.0338
15,TAATCCCA,0.00513
16,GATTGGAC,-0.106
17,CGCCTCAG,-0.0435
18,ATTTGATC,-0.0155
19,AATACCCC,-0.179
20,CCTAGAAC,-0.207
21,CCTATCTA,-0.245
22,AAAACCAG,0.166

row,Sequence,PBM E-score
1,ATGGAATA,0.117
2,ACTGCGTG,0.143
3,GCAATCTA,-0.0235
4,GCAGCTCA,-0.254
5,CAGCGATC,0.0209
6,TGATAACA,0.0523
7,GTCACTCA,0.325
8,CAGGCGGA,0.191
9,TAAAGAGA,-0.173
10,ATCACTAC,0.144
11,TGTCTTAA,-0.258
12,AGTTCGGA,0.038
13,ATTTGCAA,-0.119
14,GGAACGCC,-0.0926
15,ACGGCCTG,0.00946
16,CCACCTGA,0.156
17,AACACCGC,0.09
18,AAAATCAA,-0.193
19,CATCGTGG,0.209
20,ACCGTGGG,0.0651
